# Laboratory results from the supplement of paper PMC10338343.
# ± gives the standard deviation. This is a selection; strong and weak results do not stand in their true shares.
# Tested on: MIWI (PIWIL1) piRISC loaded with piRNA #1 (30 nt)
# Test: pre-steady-state target cleavage rate (min^-1); MIWI and MILI are mouse PIWI proteins and EfPiwi is from a freshwater sponge; tags in brackets are library labels; higher = faster piRNA-guided slicing of the target
# Conditions: guide: piRNA #1 5'p-UGAGGUAGUAGGUUGUAUAGUAUCCAGAGG; auxiliary factor: 500 nM mouse GTSF1
# How it was run: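 Reactions were run for 0–8 or 0–960 min at 33 °C in HEPES–potassium acetate buffer, combining 1 nM active affinity-purified piRISC with one synthetic guide, […] transcribed, DNA-blocked target RNA library and, in some cases, 500 nM GTSF1 partner protein. Sequencing of uncleaved targets followed, with normalisation to depth and to weakly complementary targets. Three trials were pooled, k3 was capped at 0.0001 min^-1, and the pre-steady-state cleavage rate was taken from a burst-and-steady-state fit.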
# 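Also: 1 nM active piRISC with 0.1 nM target library at 33 °C single turnover.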
row,Sequence,pre-steady-state target cleavage rate
1,GGACUGGAUACUAUACGACCUACUACCUCA,1.55 ± 0.11
2,GCUCUGCAUACUAUACAAGCUACUACCUCA,1.42 ± 0.07
3,GGAGACCUAUGUAUACAACCUACAUCCUCA,0.00443 ± 0.0022
4,GGAGAGGAUACUAUACAACCUACUACCUACA,1.18 ± 0.064
5,CCUCUGGAUACUAUACAACCUACUAGCCUCA,1.5 ± 0.11
6,GGAGAGGUUACUAUAGAACCUACUACCUCA,1.04 ± 0.074
7,CCUCUGGAACUAUACAACCUACUACCUCA,2 ± 0.12
8,GGUCUGGAUACUAUACAACCUAGUACCUCA,0.497 ± 0.071
9,GGAGACCUAUCUAUACAACCUUCUACCUCA,0.129 ± 0.013
10,GGAGACCUAUGAUAUGUACCUCACUACCUCA,0.00343 ± 0.0015
11,GGAGAGGAUACUAUAGAACCUAGUACCUCA,0.00378 ± 0.0019
12,GGAGACCUAUGAUAUGUUCCUACUACCUCA [g2:g12:cont:t1A],< 0.0001
13,GGAGAGGAUACUAUACUACCUUCUACCUCA,0.216 ± 0.018
14,GCUCUGGAUACUAAACAACCUUCUACCUCA,0.565 ± 0.032
15,GGAGUGGAUACUAUACAACCUACUAGCUCA,0.067 ± 0.013
16,CCUCUGGAUACUAUACAACCUACUACCUGCA,1.38 ± 0.098
17,GCUCUGGAUACUAUACUACCUACUACGUCA,1.03 ± 0.061
18,CCUCUGGAUACUAUACUACCUACUACGUCA,1.24 ± 0.074
19,GGAGUGGAUACUAUACAACCUACUACCGCA,0.238 ± 0.024
20,GGAGACCUUACUAUACAACCUUCUACCUCA,0.374 ± 0.022

row,Sequence,pre-steady-state target cleavage rate
1,GCUCGGAUACUAUACAACCUACUACCUCA,1.61 ± 0.12
2,GGAGAGGAUACUAUACAACCAUACUACCUCA,0.00328 ± 0.0031
3,GGAGACCAUAGUAUACAACCAACUACCUCA,0.0297 ± 0.006
4,CCUCUGGAUACUAUACAACCUAUCUACCUCA,0.348 ± 0.028
5,GGUCUGGAUACUAUUGAACCUACUACCUCA,0.442 ± 0.042
6,GGAGACCAUACAUUACAACCUACUACCUCA,0.32 ± 0.055
7,GGAGAGGAUACUAUACAACCAACUACCUCA,0.133 ± 0.011
8,GGAGACCUAUCUAUUGAACCUACUACCUCA,0.00409 ± 0.002
9,CGUCUGGAUACUAUACAACCUACUACCACA,1.72 ± 0.14
10,GGAGACGAUACUAUACAACUUACUACCUCA,0.565 ± 0.022
11,GGAGACCUAUGAUAUGUUCCUAGAACCUCA,< 0.0001
12,GGAGACCUUACUAAACAACCUACUACGUCA,0.45 ± 0.06
13,GGAGACCUAUGUGAUACAACCUACUACCUCA,0.0112 ± 0.0037
14,GCUCUGGAUAUAUACAACCUACUACCUCA,1.62 ± 0.086
15,GGAGACCUUACUAUACUACCUACUAGCUCA,0.197 ± 0.028
16,GGAGACGAUACAAUACAACCUACUACCUGA,0.606 ± 0.064
17,CCUCUGGAAACUAUAGAACCUACUACCUCA,0.89 ± 0.071
18,GGACUGGAUACUAUUCAAGCUACUACCUCA,1.01 ± 0.066
19,GGAGACCUAACUAUACAACCUACUUCCUGA,0.0085 ± 0.0052
20,GGAGUGGUUUCUAUACAACCUACUACCUCA,1.32 ± 0.081
